# According to the supplement of paper PMC10126150:
# Sequences with one replicate were seen in a single cluster, so their values are uncertain.
# Test system: ATP
# Assay: switch fluorescence ratio, 500 uM ATP over buffer (Cy3 cluster intensity, sum of 5 cycles each) (fold (ratio)); higher = stronger signal-on switching upon ATP binding; sequences stand for … in TCGTCGGCAGCGTCAGATGTGTATAAGAGACAGTTTTTTTTTTTTTTTTTTTTTTTTT…TC
# Conditions: aptamer strand: ATP DNA aptamer (quencher-CACCTGGGGGAGTATTGCGGAGGAAGG + anchor), 100 nM annealed; ATP concentration: 500 uM; one replicate
# Outline: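 Exposure to 500 uM ATP lasted 15 min at 22 °C before imaging, and a selection-buffer image was taken beforehand, for Cy3-labelled switching-strand clusters on a modified Illumina MiSeq flow-cell annealed to 100 nM quencher-labelled ATP aptamer. Five buffer/ATP cycles were run with NaOH stripping and re-annealing between them. The fluorescence ratio per cluster is summed target-cycle over summed buffer-cycle Cy3 intensity, averaged per switch-domain sequence. Clusters outside 100-1000 RFU were excluded.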
row,Sequence,switch fluorescence ratio
1,GAGAACTTAG,1
2,TCCCCCAAGT,1.44
3,TACTTAACG,1.2
4,AACCCGGCCG,0.985
5,ACTTTTCGGA,1
6,CTGGATCGAA,1.01
7,CGTGCTACCT,1.03
8,AGCTTTTGAC,1.06
9,TCCTATATC,1
10,AATTATATCT,1.08
11,CAACATAGCT,1.06
12,AATATAGGA,0.996
13,GGGGTACTAT,1
14,GCCCGGAGAA,1.07
15,TGGATCTTGA,0.966
16,CTGTCTCACA,1.02
17,GCCGGATCTG,1.38
18,TCGCATTTAG,1.6
19,GGTGTTTCCG,0.958
20,AATTTCTGAT,1.03
21,GACCCGGAAT,1.73
22,AGAAAGCAAC,1.09
23,CGGACCTCCT,1.13
24,AGCTTATAAG,1.05
25,CATATGCCTC,1.02
26,TGATACGTTT,1.05

row,Sequence,switch fluorescence ratio
1,TTTCATTCCG,1.1
2,TTCCCTTGCA,1.07
3,ACTGAGGGCT,1.06
4,AGACACCAGT,0.983
5,TCCTAGCATT,2.37
6,CAGTGACCGA,1.1
7,CTTTCGTCGG,0.974
8,TAATGACTGC,1.02
9,TTCCCGAGGG,1.01
10,GGCGCCTCGG,0.969
11,TTGTTGGAAA,0.992
12,GTTTCGGGAA,0.965
13,TCTGACTTTG,0.972
14,GACCAATTGC,1.24
15,GCGTTCCGTG,1.01
16,CAGTAGCAGT,3.27
17,ACGGTGTGCC,1.01
18,TTATACCCAA,1.1
19,GCCCGCATTT,1.9
20,GTCTGTTTTG,0.982
21,ATCGGTAGTG,0.969
22,TCTCTGCCGG,1.04
23,AATTATTTAG,0.981
24,GTTCGCATGG,1.26
25,GGTTAACTGA,1.02
26,CCTAGGGATC,1.06

row,Sequence,switch fluorescence ratio
1,GAATTGCGT,1
2,TAAGGGCGAA,1.01
3,TCATAATATG,0.99
4,TTGTTGCGCA,0.985
5,CCGTATACTT,2.09
6,ATTGGTACAT,0.986
7,TAGTGAGCTG,0.95
8,CTCCAGTTA,1.13
9,GGAGGTGCTA,1.03
10,GCTCAAGTTG,0.988
11,CCATCCCGGA,0.988
12,AAATGAGCGA,0.977
13,GGGAGAGGG,0.901
14,TGTAGGCAGC,1.02
15,CGCTCAGGCA,1.04
16,AGGCGAGCCT,0.997
17,CGAAGTTCCT,0.977
18,AAAAGTAGGT,1.01
19,AAAGTCTCTA,0.92
20,CGTATCTCAC,0.996
21,CACCAACTGG,1.01
22,GAGTCCGGCG,0.994
23,TACTTGTAGA,1.03
24,GTTCATGAGA,1.05
25,TAGAAGCAG,0.981
26,CTTGGATAAA,0.997

row,Sequence,switch fluorescence ratio
1,AACGGGAAAT,1.37
2,GATATAGAAG,0.997
3,TTGTAGCATT,1.09
4,TGCTGGCGTC,0.98
5,CTCAACCCAA,1.11
6,CCAGCGCTGA,1.04
7,GCAAAAGATA,0.988
8,ATTTCACACC,1.07
9,GTGCACATGT,1.05
10,GGGTATAAAG,0.985
11,GTTTTCCGA,1.02
12,TTCTGGATGC,1.02
13,TGTGTTATCG,1.11
14,GATAGGCGAA,1.03
15,CTAGGCCGGT,0.949
16,TGTTGAGGGC,0.955
17,AGCTTATATC,1.26
18,AACCGTATCT,1.09
19,CAGTCTGGAA,1.05
20,ACTAGGGGAT,1.01
21,ACGATCATTC,1.14
22,GTTACTTTAG,1.06
23,CAAAGAGGTG,1.09
24,ATGATAATGA,1.01
25,CATTTTTCTT,0.997
26,ACGGGCACCA,1.02

row,Sequence,switch fluorescence ratio
1,GCCATTAACA,1.02
2,TTTAGCTAGC,0.981
3,TAATCTCCA,1.1
4,TGGAAGGCCT,0.99
5,CGGGAACCAC,1.02
6,TGCAGTCGGG,0.981
7,ACATCAAATT,1.07
8,AGAGTGCAAA,1.01
9,GAAAGCTTC,1.48
10,GGCGTCATAT,0.979
11,GTGATT,0.997
12,TTGGACTTTC,1.04
13,CCATCTTAC,1.27
14,TCATCCGGTG,1.41
15,AGATGAGCCA,0.97
16,TCTTGGTGGG,1.02
17,CTTCCTGGAG,1.3
18,TACGTTAAAT,1.13
19,TATAAATAA,0.964
20,GGAAGTACCG,1.08
21,GCGCGAGTCT,1.01
22,TTGGCGTTAG,0.98
23,ATCCTGAATC,1.05
24,TGGTGTGCAC,1
25,AAGGTAGGTA,0.974
26,CCAGAGAAAC,1.09

row,Sequence,switch fluorescence ratio
1,AGAGTCAGAA,0.961
2,GGTTTATGAT,0.989
3,CAATCTCC,1.31
4,TCTCTTCTGG,0.986
5,ATGTTTTCCA,0.978
6,TACTAGTCTT,0.989
7,TTTCGCGCTT,1.95
8,ATTGTGAACC,1.04
9,GCAGTAAGGT,1
10,AAGTTCCTG,0.99
11,ATAAGTTAAT,1
12,GAGCGCTAGT,1.01
13,TCTCAGACCA,0.981
14,GCTGCCGGGT,1.01
15,TGGTAGGAGT,0.975
16,TTGGGGCGAA,1.03
17,TGTCTCCGGG,1.02
18,ACGGATCCTG,0.985
19,GTGCATTGGG,1.02
20,TGCGAGTAAA,1.03
21,CGACTCCTAG,0.996
22,GCATGGAACT,1.01
23,TGGATCCCGC,1.08
24,ATTGTACAAC,1.03
25,GCATATTGTT,0.994
26,ACAGCAATTT,1.5

row,Sequence,switch fluorescence ratio
1,CTTCATAATT,1.04
2,GTATTAGTTT,1.01
3,GGTTAAAACG,1.11
4,TTAGAAAGCT,0.995
5,ATAAGCTCTA,1.02
6,TACGTCACGG,1.58
7,GCCGCCAATG,1.08
8,TAGGTACTCG,1.03
9,CCACGCTGTA,1.14
10,TAAATGAGAT,0.977
11,CGGACGCGGC,1.73
12,CCTAAGAGGC,0.993
13,GTGTCTGGAC,0.999
14,AAAGGGTGGA,0.992
15,CATTGGGGCC,1.07
16,CGTAGCCAAC,2.45
17,GCTGGGTGTT,1.14
18,ATTCGTGCGG,1.01
19,CCCTCTAGGA,0.969
20,CGAACGGTAG,1.03
21,TCTGAGGTGT,1.07
22,AGTATCAGGC,0.958
23,ACTAGTTTCC,0.996
24,ACGGTTCAAA,1.01
25,AATAACAAGA,1.06
26,GTGGGATGCT,1.01

row,Sequence,switch fluorescence ratio
1,AGTGTCGTTC,0.979
2,TTTGAATTA,0.995
3,GAAGACAATA,1.37
4,CCGATAAACA,1.08
5,CTCTTTTTTC,0.95
6,ATTTGTGCAC,1.02
7,GGGCTACCTT,1
8,AAGGAGTTA,1.05
9,TGTGCTGCA,0.982
10,GTCACTGGGG,1.06
11,AAGTTAATCA,1.01
12,ATCGAGAAAG,0.983
13,ATAGATCTTG,0.972
14,TATTATACGT,1
15,GTATGAGGCC,0.947
16,AGAAGTGACC,1.1
17,TGCTCATAAA,1.01
18,CTAAGAAGTT,0.968
19,TCACGGTCAT,1.06
